Laboratory results as given in US20230277682A1 (priority 2022, published 2023).

B1: 10985-12b (conjugate)
heavy: EVQLVESGGGLVQPGRSLRLSCAASGFTFDDYAMHWVRQAPGKGLEWVSGISWNRGSIGYADSVKGRFTISRDNAKNSLYLQMSSLRAEDTALYYCAKDGERWDSVVVPSARNGMDVWGQGTTVTVSS[human IgG1 constant region omitted here]
light: QSVLTQPPSVSGAPGQRVTISCTGSSSNIGAGYDVHWYQQLPGTAPKLLIYGNSNRPSGVPDRFSGSKSGTSASLAITGLQAEDEADYYCQSYDSSLSGSYVFGTGTKVTVLGQPKAAPSVTLFPPSSEELQANKATLVCLISDFYPGAVTVAWKADSSPVKAGVETTTPSKQSNNKYAASSYLSLTPEQWKSHRSYSCQVTHEGSTVEKTVAPTECS
B2: 10985-HC-Cterm-LLQGA-10b (conjugate)
heavy: EVQLVESGGGLVQPGRSLRLSCAASGFTFDDYAMHWVRQAPGKGLEWVSGISWNRGSIGYADSVKGRFTISRDNAKNSLYLQMSSLRAEDTALYYCAKDGERWDSVVVPSARNGMDVWGQGTTVTVSS[human IgG1 constant region and a few adjoining residues omitted here]
light: B1 light
B3: 4A8-HC-Cterm-LLQGA-1 Ob (conjugate)
heavy: EVQLVESGAEVKKPGASVKVSCKVSGYTLTELSMHWVRQAPGKGLEWMGGFDPEDGETMYAQKFQGRVTMTEDTSTDTAYMELSSLRSEDTAVYYCATSTAVAGTPDLFDYYYGMDVWGQGTTVTVSS[human IgG1 constant region and a few adjoining residues omitted here]
light: EIVMTQSPLSSPVTLGQPASISCRSSQSLVHSDGNTYLSWLQQRPGQPPRLLIYKISNRFSGVPDRFSGSGAGTDFTLKISRVEAEDVGVYYCTQATQFPYTFGQGTKVDIKRTVAAPSVFIFPPSDEQLKSGTASVVCLLNNFYPREAKVQWKVDNALQSGNSQESVTEQDSKDSTYSLSSTLTLSKADYEKHKVYACEVTHQGLSSPVTKSFNRGEC

System: VSVAG expressing the spike protein of SARS-CoV-2
Format: cell-based

Molecule	Fold Increase over Parental Antibody [fold]
B1	2.2
B2	2.5
B3	2.8
